{"source": "PubChem BioAssay AID485344", "about": "(National Center for Advancing Translational Sciences (NCATS), 2010)", "note": "Out of some 340,000 compounds screened, about 6,900 (2%) were called active. Cut-off read from the data, not from the text of the source: active = inhibition above about 30%; inactive = below that, where a call was filed. The entries are a selection whose mix differs from that of the whole data set. Entries without a call were filed so in the source.", "data": [{"biological_target": "D(2) dopamine receptor (Homo sapiens) (UniProt P14416)", "sequence (P14416 whole entry, looked up)": "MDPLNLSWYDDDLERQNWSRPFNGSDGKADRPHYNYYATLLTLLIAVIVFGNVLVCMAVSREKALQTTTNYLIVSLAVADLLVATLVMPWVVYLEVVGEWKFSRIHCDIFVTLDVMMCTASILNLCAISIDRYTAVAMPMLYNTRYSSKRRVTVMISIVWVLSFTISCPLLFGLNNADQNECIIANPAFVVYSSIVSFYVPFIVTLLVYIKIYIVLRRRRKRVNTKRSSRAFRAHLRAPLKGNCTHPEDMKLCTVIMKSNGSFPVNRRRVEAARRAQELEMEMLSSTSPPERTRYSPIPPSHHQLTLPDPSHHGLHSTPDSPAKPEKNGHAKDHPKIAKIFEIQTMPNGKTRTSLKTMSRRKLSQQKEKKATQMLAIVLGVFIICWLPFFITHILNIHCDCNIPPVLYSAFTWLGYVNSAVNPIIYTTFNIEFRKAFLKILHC", "assay": "HTS Assay for Allosteric Antagonists of the Human D2 Dopamine Receptor: Primary Screen for Antagonists; note: 0% is about no effect", "settings": "HEK293 TREx D2 cells, calcium flux, dopamine EC80; at 10 µM; stronger effect = higher value", "how_it_was_run": "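Tetracycline-induced HEK293 TREx cells expressing D2 receptor forced-coupled to calcium signalling, loaded with no-wash calcium dye. Compounds added and calcium flux read 180 s, then dopamine added at EC80 and read a further 180 s.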", "values": [{"compound": "CC(C)(C)OC(=O)N1CCC(c2c(C(=O)N3CCc4ccccc4C3)cnn2-c2ccc(Cl)cc2)CC1", "inhibition": "-2.83%"}, {"compound": "CCS(=O)(=O)Nc1cc(-c2cn3ccc(C)cc3n2)ccc1C", "inhibition": "3.8%"}, {"compound": "CCCCNC(=O)CSc1nc2cc3c(cc2c(=O)n1CCCC(=O)NCc1ccc2c(c1)OCO2)OCO3", "inhibition": "8.44%"}, {"compound": "Cc1cc(C)cc(C(=O)N2CC(=O)Nc3ccc(C)cc3C2c2ccccc2)c1", "note": "(centres undefined)", "inhibition": "13.6%"}, {"compound": "COc1ccc(NCc2ccccc2-c2nnc(-c3ccccc3)o2)cc1Cl", "inhibition": "-11.9%"}, {"compound": "Cc1cc(NC(c2nnc(-c3ccccc3)o2)c2ccccc2F)ccc1Br", "note": "(centres undefined)", "inhibition": "-7.28%"}, {"compound": "CCc1cccc2sc(N3CCN(C(=O)C4CC4)CC3)nc12", "inhibition": "9.63%"}, {"compound": "Cc1ccc2cccc(NC(=O)c3cccc4ccccc34)c2n1", "inhibition": "-3.9%"}, {"compound": "CCN(CC)c1ccc(-c2nc(-c3ccncc3)no2)cc1[N+](=O)[O-]", "inhibition": "1.31%"}, {"compound": "CCCCN(C(=O)c1cccc(S(=O)(=O)N2CCCCC2)c1)C1CCS(=O)(=O)C1", "note": "(centres undefined)", "inhibition": "19.2%"}, {"compound": "c1ccc(-c2ccccc2OCCN2CCCC2)cc1", "inhibition": "active: 81.9%"}, {"compound": "O=C(Nc1ccc(F)c(Cl)c1)N1CCN2CCCCC2C1", "note": "(centres undefined)", "inhibition": "2.22%"}, {"compound": "COc1ccc(C2CC(=O)c3c([nH]c(C(=O)OC4CCC(C)CC4)c3C)C2)cc1OC", "note": "(centres undefined)", "inhibition": "3.31%"}, {"compound": "Cc1cccc(-n2c(=O)c3c(c4cc(C)ccc4n3C)n(CC(=O)Nc3ccccc3C(F)(F)F)c2=O)c1", "inhibition": "-9.35%"}, {"compound": "c1ccc(C(c2cccs2)c2c[nH]c3ccccc23)cc1", "note": "(centres undefined)", "inhibition": "-5.45%"}, {"compound": "Cc1ccc(-c2noc(CN(C3CCCCC3)S(=O)(=O)c3ccc(Cl)cc3)n2)cc1", "inhibition": "-8.68%"}, {"compound": "Cc1ccc(CNc2ncnc3c2c(-c2ccccc2)cn3-c2cccc(Cl)c2)cc1", "inhibition": "6.24%"}, {"compound": "COc1ccccc1Cc1nc2ccccc2nc1SCC(=O)NCCc1ccccc1", "inhibition": "-28.4%"}, {"compound": "CCCCN(Cc1ccccc1)S(=O)(=O)c1ccc2c(c1)CC(C)N2C(=O)CC", "note": "(centres undefined)", "inhibition": "23.2%"}, {"compound": "CCN(CC)CCCNC(=O)c1c(C)oc2ncnc(N3CCOCC3)c12", "inhibition": "-1.33%"}, {"compound": "CCS(=O)(=O)c1ccccc1C(=O)N(Cc1cccnc1)c1nc2cc(C)c(C)cc2s1", "inhibition": "2.96%"}, {"compound": "CN(C(=O)CSc1nc2ccccc2n1CC(=O)NCc1ccc(F)cc1)c1ccc(F)cc1", "inhibition": "0.979%"}, {"compound": "CCOC(=O)Cn1cc2c(c1-c1ccc(Cl)cc1)c(=O)n(C)c(=O)n2C", "inhibition": "-7.67%"}, {"compound": "CCc1noc2nc(C)n(CC(=O)O)c(=O)c12", "inhibition": "0.08%"}, {"compound": "O=c1n(CCCN2CCN(c3cccc(Cl)c3)CC2)nc2ccccn12", "inhibition": "active: 52.4%"}, {"compound": "Cc1c(C(=O)NCc2ccc(Cl)cc2)sc2nc3n(c(=O)c12)CCCC3", "inhibition": "-11.2%"}, {"compound": "CCOc1ccc(CNC(=O)c2ccc(NC(=O)c3nsc4ccccc34)cc2)cc1", "inhibition": "5.34%"}, {"compound": "COC(=O)c1cc2occc2n1CC(=O)Nc1cccc(SC)c1", "inhibition": "1.15%"}, {"compound": "O=S(=O)(NCC(c1ccco1)N1CCN(c2ccc(F)cc2)CC1)c1ccccc1", "note": "(centres undefined)", "inhibition": "-17.7%"}, {"compound": "CCn1c(=N)c(C(=O)NCc2cccnc2)cc2c(=O)n3cc(C)ccc3nc21", "inhibition": "-14%"}, {"compound": "COc1ccc(-c2nc(CSCC(=O)NCCc3ccc(C)cc3)c(C)o2)cc1OC", "inhibition": "12.3%"}, {"compound": "CCC(Cc1ccccc1)NC(=O)c1oc(=O)c2ccccc2c1-c1ccccc1", "note": "(centres undefined)", "inhibition": "-21.8%"}, {"compound": "COc1ccc2nc(NC(=O)c3ccc(S(=O)(=O)N4CCC(C)CC4)cc3)sc2c1", "inhibition": "0.0941%"}, {"compound": "COC(=O)c1ccccc1NC(=O)c1noc2c1CSc1ccccc1-2", "inhibition": "1.11%"}, {"compound": "CCc1ccc(NC(=O)N2CCN(Cc3cc(=O)n4nc(-c5ccccc5OC)sc4n3)CC2)cc1", "inhibition": "-0.441%"}, {"compound": "Cc1cccc(C)c1OCCCCn1c(C2CC(=O)N(c3ccc(F)cc3)C2)nc2ccccc21", "note": "(centres undefined)", "inhibition": "-12.2%"}, {"compound": "CCOC(=O)c1cccc(NC(=O)NCCc2c(C)nn(C)c2C)c1", "inhibition": "6.97%"}, {"compound": "Cn1c(=O)c2sccc2n2c(CCC(=O)N3CCN(c4ccccc4)CC3)nnc12", "inhibition": "13.8%"}, {"compound": "CCC(=O)Nc1sc2c(c1C(=O)Nc1ccccc1C)CCC(C)C2", "note": "(centres undefined)", "inhibition": "-8.55%"}, {"compound": "Cc1ccc(-n2nc3ccc(NC(=O)c4cc5ccccc5o4)cc3n2)cc1", "inhibition": "19%"}, {"compound": "Cc1ccc(N2CC(c3nnc(NC(=O)c4ccco4)s3)CC2=O)cc1Cl", "note": "(centres undefined)", "inhibition": "16%"}, {"compound": "O=S(=O)(c1ccc(Br)cc1)c1nnn2c1nc(NC1CCCCCC1)c1sccc12", "inhibition": "7.26%"}, {"compound": "CCOc1ccc(CNC(=O)CCC(=O)N2CC3CCCN3c3ccccc32)cc1", "note": "(centres undefined)", "inhibition": "16%"}, {"compound": "CCc1nc2cccnc2n1-c1ccc(CC(=O)Nc2ccccc2Cl)cc1", "inhibition": "10.4%"}, {"compound": "CC1CCCN(CCCOc2ccccc2-c2ccccc2)C1", "note": "(centres undefined)", "inhibition": "active: 73.4%"}, {"compound": "COc1ccc(Cl)cc1NC(=O)c1cc(S(=O)(=O)N2CCC(C)CC2)cn1C", "inhibition": "12.3%"}, {"compound": "CCN1CCN(C(c2cccc(F)c2)c2c(O)cc(C)n(CCOC)c2=O)CC1", "note": "(centres undefined)", "inhibition": "6.73%"}, {"compound": "Cc1cccc(NC(=O)CSc2nc3c(oc4ccccc43)c(=O)n2Cc2ccco2)c1", "inhibition": "-4.92%"}, {"compound": "Cc1cc(NS(=O)(=O)c2ccc3nc(-c4ccccc4)[nH]c3c2)ccc1Br", "inhibition": "17%"}, {"compound": "CC(C)C(=O)Nc1ccc2nc(SCC(=O)N3CCOCC3)sc2c1", "inhibition": "-0.574%"}, {"compound": "Cc1ccc(C)n1-c1nnc(N2CCC(C(=O)NCc3ccc(F)cc3)CC2)s1", "inhibition": "11.2%"}, {"compound": "COc1ccccc1-c1noc(CSc2nnc(Cc3ccccc3)n2-c2ccc(C)c(C)c2)n1", "inhibition": "-2.37%"}, {"compound": "CCOC(=O)c1c(N)n(-c2ccccc2CC)c2nc3ccccc3nc12", "inhibition": "-4.84%"}, {"compound": "CC(C)c1nc2ccc(C(=O)NCc3ccc(N(C)C)cc3)cc2o1", "inhibition": "-16.4%"}, {"compound": "Cc1ccc(-n2nc3c(=O)n(CCCC(=O)NCCc4ccccc4)nc(C)c3c2C)cc1", "inhibition": "0.485%"}, {"compound": "Cc1cccc(CCNC(=O)CCS(=O)(=O)c2cc3c(cc2Cl)NC(=O)CO3)c1", "inhibition": "7.83%"}, {"compound": "COc1ccc(C)cc1Nc1nc2ccccc2c2nnc(C)n12", "inhibition": "7.26%"}, {"compound": "CSc1ccc(C2c3[nH]c4ccccc4c3CCN2C(=O)CCc2ccccc2)cc1", "note": "(centres undefined)", "inhibition": "-6.96%"}, {"compound": "COc1ccc(-c2cn3cccnc3n2)cc1NC(=O)c1c(F)cccc1F", "inhibition": "10.7%"}, {"compound": "COc1cccc(CNC(=O)C2CCN(S(=O)(=O)c3ccc4c(ccn4C)c3)CC2)c1", "inhibition": "-17.5%"}, {"compound": "COc1cc(Cl)c(C)cc1NC(=O)CCn1c(=O)c2cccn2c2cccnc21", "inhibition": "1.18%"}, {"compound": "CCn1c(=O)c2cc(C(=O)N(CCCOC(C)C)Cc3ccco3)sc2c2ccccc21", "inhibition": "6.05%"}, {"compound": "Cc1ccc(-c2sc(C(=O)Nc3ccc(Br)cc3)cc2CC(=O)O)cc1", "inhibition": "7.8%"}, {"compound": "Cc1cc(C)c(NC(=O)Cn2c(SCC(=O)NCc3ccccc3)nc3ccccc32)c(C)c1", "inhibition": "-8.95%"}]}]}
